Measurements taken from PubChem BioAssay AID1745853 (National Center for Advancing Translational Sciences (NCATS), 2022).
This is one part of the list. Further columns of the screen follow, without active or inactive calls.

Assays:
Test in all cases: Primary Screen for Target Class Profiling of Small Molecule Inhibitors of Methyltransferases
[1] = target: Glycine N-methyltransferase (Homo sapiens) (UniProt Q14749); settings: purified enzyme, MTase-Glo SAH luminescence; measured here: GNMT inhibition; at 40 µM; stronger effect = lower value
Method in brief: (§1)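 Each enzyme was reacted with SAM and its substrate, with compounds tested once at 40 uM; SAH formed was read by MTase-Glo luminescence.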

[2] = target: Guanidinoacetate N-methyltransferase (Homo sapiens) (UniProt Q14353); settings: purified enzyme, MTase-Glo SAH luminescence; measured here: GAMT inhibition; at 40 µM; stronger effect = lower value
Method in brief: as §1

[3] = target: Histamine N-methyltransferase (Homo sapiens) (UniProt P50135); settings: purified enzyme, MTase-Glo SAH luminescence; measured here: HNMT inhibition; at 40 µM; stronger effect = lower value
Method in brief: as §1

[4] = target: Nicotinamide N-methyltransferase (Homo sapiens) (UniProt P40261); settings: purified enzyme, MTase-Glo SAH luminescence; measured here: NNMT inhibition; at 40 µM; stronger effect = lower value
Method in brief: as §1

[5] = target: Phenylethanolamine N-methyltransferase (Homo sapiens) (UniProt P11086); settings: purified enzyme, MTase-Glo SAH luminescence; measured here: PNMT inhibition; at 40 µM; stronger effect = lower value
Method in brief: as §1
% is scaled to controls: 0 for no effect and ±100 for the full control effect.

Row | Structure (SMILES) | activity change, negative = inhibition [1] | activity change, negative = inhibition [2] | activity change, negative = inhibition [3] | activity change, negative = inhibition [4] | activity change, negative = inhibition [5]
1 | COc1cccc(CN2CCCC(O)(CN3CCC(C)CC3)C2=O)c1 (configuration not stated) | -2.6% | -4.23% | -0.761% | -7.78% | -3.91%
2 | Cn1c(=O)c2ccc(C(=O)NC3CCCC3)cc2n2c(SCc3c(F)cccc3Cl)nnc12 | -6.15% | -2.57% | -0.198% | 0.825% | -3.79%
3 | C[C@@H]1O[C@@H](OC[C@H]2O[C@@H](OCC3CCC4CC3C4(C)C)[C@H](O)[C@@H](O)[C@@H]2O)[C@H](O)[C@H](O)[C@H]1O (some centres not stated) | 3.61% | 3.55% | 10.7% | -8.59% | 6.49%
4 | COC(=O)N(C)Cc1cccc(N2CCN(C(=O)OC(C)(C)C)CC2)c1F | -7.58% | -11.6% | -4.29% | -16.9% | -14.7%
5 | Cc1cc2nc(NCCCO)n(CC(=O)c3cc(C(C)(C)C)c(O)c(C(C)(C)C)c3)c2cc1C | 2.97% | 11.5% | 0.067% | -17% | -2.25%
6 | COc1ccccc1CNC(=O)c1ccc2c(=O)nc3c(-c4ccc(Cl)cc4)n[nH]n3c2c1 | -16.8% | -8.55% | -7.93% | -18.6% | -5.17%
7 | C=C1CCC2C(C)(COC(C)=O)CCCC2(C)C1CCC(C)CC(=O)O (configuration not stated) | -11.5% | -5.68% | 9.7% | -25.1% | -12.6%
8 | COC(=O)c1ccc2c(c1)C1C=CCC1C(c1ccc(Br)cc1)N2 (configuration not stated) | -9.39% | -0.291% | -11.7% | -6.05% | -17.5%
9 | CCCn1c(=O)c2ccc(C(=O)NC3CCCC3)cc2n2c(=O)n(CC(=O)c3ccc(Cl)cc3)nc12 | 1.78% | 6.5% | 1.47% | 3.13% | 1.12%
10 | COc1ccc(CCC(=O)N2CCCC(c3nc(-c4ccccc4)no3)CCNC(=O)CC2)cc1 (configuration not stated) | -2.15% | 1.54% | 0.993% | -4.77% | 6.39%
11 | Cc1ccc(C)c(N2CCN(C(=O)c3ccc4c(=O)nc5c(-c6ccc(F)cc6)n[nH]n5c4c3)CC2)c1 | -14.7% | -3.72% | -6.61% | -6.52% | -5.81%
12 | Cc1noc([C@H]2CCN(CC3CC3)C[C@H]2NC(=O)C2CCOCC2)n1 | -0.903% | -0.512% | 1.16% | -1.78% | 1.44%
13 | CC(C)CCNC(=O)C1(C)Cn2nc(C(=O)NCc3ccccc3)cc2C(=O)N1C (configuration not stated) | 1.44% | 4.38% | 0.972% | -0.857% | -1.72%
14 | CC(=O)O[C@H]1[C@H](C)[C@@H](O)[C@H]2[C@@H]1C=C(C(=O)O)[C@H]1C[C@@H]3[C@H]([C@H]21)[C@H]1C(=O)O[C@@H]2CC[C@@]3(C)O[C@]1(O)[C@@H]2C | 1.47% | 4.18% | 3.79% | -8.19% | -0.976%
15 | Cc1cccc(CNC(=O)C2(C)Cn3cnc(C(=O)NCc4ccccc4)c3C(=O)N2C2CC2)c1 (configuration not stated) | -7.47% | 4.7% | -5.08% | -5.82% | -5.46%
16 | CCCn1c(=O)c2ccc(C(=O)NC(C)C)cc2n2c(=O)n(CC(=O)Nc3ccc(C)cc3C)nc12 | 4.9% | 0.019% | -1.15% | 8.02% | 6.57%
17 | O=C(c1ccoc1)N1CCCC(n2cc(-c3nc(C4CC4)no3)nn2)C1 (configuration not stated) | -2.78% | 1.03% | 0.216% | 2.85% | 14.8%
18 | CCC(C)NC(=O)c1ccc2c(=O)n(C(C)C)c3nn(CC(=O)Nc4ccc(Cl)cc4)c(=O)n3c2c1 (configuration not stated) | 1.6% | 0.87% | 2.27% | -3.79% | -0.671%
19 | Cc1nc(N2CCC(NC(=O)c3sccc3C)CC2)cc(C(F)(F)F)n1 | -3.48% | -1.68% | -0.272% | -0.415% | 4.04%

Row | Structure (SMILES) | activity change, negative = inhibition [1] | activity change, negative = inhibition [2] | activity change, negative = inhibition [3] | activity change, negative = inhibition [4] | activity change, negative = inhibition [5]
20 | CCCN1C(=O)c2cc3occc3n2CC1(C)C(=O)NC1CCCCCCC1 (configuration not stated) | 0.39% | 2.44% | -2.25% | 7.52% | -0.06%
21 | CCOCCn1nc(C)cc1C(=O)N1CC(C)(C)[C@@](C)(O)C1 | -0.15% | -2.19% | 0.764% | 3.79% | -0.878%
22 | CC(=O)Nc1ccc2c(c1)C1C=CCC1C(c1ccccc1F)N2 (configuration not stated) | -36.4% | -14.6% | -17.4% | -3.35% | -30.5%
23 | c1ccc(C2CN3CCSC3=N2)cc1 (configuration not stated) | -7.55% | 1.53% | -8.87% | -8.7% | 3.47%
24 | CCc1cnn2c(NCc3ccc[n+]([O-])c3)cc(N3CCCCC3CCO)nc12 (configuration not stated) | 3.51% |  | 11.7% |  | 
25 | Cc1nc(CN2C[C@H](C(=O)N3CCN(CCO)CC3)C[C@@H]2c2ccc(F)cc2)cs1 | -4.07% | 1.46% | 0.86% | -6.04% | 14.5%
26 | COc1ccc(C(=O)N[C@@H]2c3ccccc3C3(CCNCC3)[C@H]2OC)c(C)c1 | -2.58% | -6.36% | -3.07% | -6.87% | -3.5%
27 | Cc1ccc(Cn2c(=O)c3ccc(C(=O)NC4CCCC4)cc3n3c(=O)n(CC(N)=O)nc23)cc1 | 3.68% | 0.643% | 3.76% | -3.41% | 1.85%
28 | COc1cccc(-c2cccc(C(=O)N3CCN(C(=O)Cc4cccc(Cl)c4)CC3)c2)c1 | -4.73% | 0.963% | -0.898% | -4.25% | -1.87%
29 | COc1ccc(C(=O)N(Cc2ccco2)S(=O)(=O)c2ccc3c(c2)n(C)c(=O)n3C)cc1 | -2.17% | 0% | 4.72% | -13.3% | -1.11%
30 | COc1ccc(C2(O)c3ccccc3NC(=O)C2O)cc1 (configuration not stated) | 2.45% | 0.545% | 4.92% | -13.5% | 3.37%
31 | CCOC(=O)C1CCCN(C(=O)C2CC(c3ccc(F)c(C)c3)CN(C(=O)NC(C)C)C2)C1 (configuration not stated) | -1.82% | -1.23% | -0.149% | -7.21% | -2.96%
32 | CC1CCCC(NC(=O)C2(C)Cn3c(cc4sccc43)C(=O)N2Cc2ccc(F)cc2)C1C (configuration not stated) | 4.83% | -0.672% | 6.16% | 0.914% | 3.54%
33 | CC(C)CNC(=O)c1ccc2c(=O)n(CC(C)C)c3nn(Cc4ccccc4F)c(=O)n3c2c1 | -0.717% | 4.78% | 1.33% | -1.83% | 1.81%
34 | O=C1CCN(Cc2ccncc2)CCCC(CO)CCN1 (configuration not stated) | -3.15% | -1.07% | -2.76% | -3.1% | 1.73%
35 | O=C1c2ccccc2C(=O)c2cc(S(=O)(=O)NCCO)ccc21 | -19.9% | 1.81% | -0.505% | 0.177% | -31.9%
36 | CCCCN(CC)CCN1C(=O)c2cc3sc(CC)cc3n2CC1(C)C(=O)NC1CCCCC1 (configuration not stated) | -1.23% | 4.05% | -7.84% | 8.38% | 0.798%
37 | CCCn1c(=O)c2cc(Cl)ccc2n2c(SCC(=O)Nc3ccc(C(C)C)cc3)nnc12 | 2.95% | 0% | 12.8% | 3.68% | 5.75%
38 | CCc1ccc(C2c3cccn3-c3sc4c(c3CN2C(=O)Nc2cccc(OC)c2)CCCC4)cc1 (configuration not stated) | -14.1% | -0.167% | -1.05% | -11.6% | -3.58%
